Measurements published in the supplement of paper PMC11417369.
The list shows a part of the results.

System: PfSIP2 AP2 domain 1 (GST-tagged)
Assay: gcPBM binding intensity (ln(normalized median fluorescence intensity)); higher = stronger DNA binding
Method in brief: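 DNA-binding domains from P. falciparum, fused to GST and produced in E. coli, were put on an Agilent 4 × 180k double-stranded probe array for 1 h in 1× PBS holding 1% milk, 0.2 mg/ml BSA, 0.5% salmon testes DNA and 0.03% Triton X-100. Probes were primer-extended, 36 bp long and drawn from intergenic genomic regions, with negative controls included. After Alexa488 anti-GST antibody detection and a 488 nm scan, binding intensity was set as the highest Masliner-normalised natural-log median intensity across replicate spots of either probe orientation.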

Sequence | gcPBM binding intensity (ln)
TAAACAGACATATAAACACACATATAAACAGACATA [CACACA_site7214] | 6.98
TTTTCTTCCTATTATTGTACATATAGTATTCTTTCA [XGTACX_site4428] | 7.2
AATATAAGTAATTATACACACTTAATATTTATATAC [CACACA_site7334] | 6.8
AATTATACATATATTTAACACACATTTTATAAAGTG [CACACA_site8362] | 6.94
ATATATATATATAATTGTACATGTGTGTATAATTTG [XGTACX_site2417] | 9.29
TTTTATTTTATATAACAACAAAATGGAAATATATAT [GTGCAC_negctrl_site71] | 7.19
GTCAATATTTAGATATGTACTAAGGAGTGCTATATA [XGTACX_site222] | 7.29
TAAATGAAAATAAATTAACACACAATTTTAATATTG [CACACA_site8360] | 6.55
ATATTATGAAGGGATATTTTCAAAAATATTAGGAGA [CACACA_negctrl_site942] | 6.92
CAATTTTTATGTGTGTGTACTCATTTGTTTTATAAA [XGTACX_site406] | 7.42
TTGGAATAATATAAATAAATAAATATATATATATAT [CACACA_negctrl_site900] | 9.05
ATACAACAGATATATACACACATATAACAATAATAA [CACACA_site7560] | 7.16
AAAAAAAAAAAATGTGCACACGCGTACACCCAAAAA [CACACA_site8614] | 9.45
TTTCTTTTTGTTCGTGTACACACATGAAATTTATAA [CACACA_site8466] | 7.42
GTAATAAATTAAATATGTACATATTAAAATTAAGGA [XGTACX_site2290] | 7.27
ATTGATACATCCAATACACACTACAGATAATGATGT [CACACA_site5098] | 6.97
TGCTACATAATATGTACACACATATACATATTTATA [CACACA_site6545] | 7.26
GTATGATTAAATAAAGGTACACTTATATTTATTTAT [XGTACX_site6966] | 7.32
TATCACATTTATGAGAGTACATAATTAATTCATGAT [XGTACX_site7850] | 6.98

Sequence | gcPBM binding intensity (ln)
GAATTAATTTTAAAACGTACATGGGTGTATTTACAC [XGTACX_site5939] | 7.31
CATAATACAAATGTGATACCTGAAAATGACTTATTA [CACACA_negctrl_site994] | 6.7
TTCTTTTTTGTAATAACACACACACTAACAGAAAAA [CACACA_site8646] | 7.54
ATTAAATACATTAACACACACACAAATAAATACATA [CACACA_site5583] | 7.01
TTTTATTATTTGTCTTGTACTCATTGTAAGAGTATG [XGTACX_site1538] | 7.33
GACAGATTATAGCATAGTACTCATACATACATACAT [XGTACX_site1252] | 8.08
TACATACATACATACACACACACATCTATATTTATA [CACACA_site6171] | 8.26
TTTCAAAAATTATTTTGTACATATAATTAATATACG [XGTACX_site512] | 6.98
AATTTCTTCCATTGTAGTACTCAATTTTTTTTTGTT [XGTACX_site5847] | 7.21
GTGTAATATTATATATATATATATAATATATATACA [CACACA_negctrl_site263] | 7.31
CACATATACAAAAAGAAATGTTTAGTTGAAAATTAA [CACACA_negctrl_site1407] | 6.67
ATTTAAAAGTTGGTAGTGCATTAAAAATAACAAAAA [GTGCAC_site9835] | 8.96
TTCCCTTATTTTGTATGTACACAATTTATCATGTTG [XGTACX_site2896] | 7.18
ATATATATATATGCATGTACATATATTTGTTATATC [XGTACX_site3197] | 9.3
AATAGATATATAAATACACACAAACATACCTATATA [CACACA_site7823] | 6.86
AAACAAAGGGAACATGTGCACTTACAAAAAAAAAGA | 9.49
TCACACCTTTTTGGTTGTACTTAAATTTCTTTTTTT [XGTACX_site6438] | 7.03
ATTTATTTTAATTTTTTTTTTTCTCTTTTGGATCTA [CACACA_negctrl_site1408] | 6.56
TGTAATATGAAATGTGTACACACGCACCCACAAAAA [CACACA_site8948] | 10.9

Sequence | gcPBM binding intensity (ln)
TTCTCAAAGTTTACGTGTACATAAATTATATAAATG [XGTACX_site2622] | 7.23
ATTAGGCATATTTTCTGTACACAATAATAAAAAAAA [XGTACX_site3957] | 7.42
AATGAATTTAATTCTACTATTTTTTTTTTAAATATT [XGTACX_negctrl_site296] | 6.63
TAGTAAAAGATATACACACACCAAAAAATATAATTA [CACACA_site7142] | 6.99
TATATATGGGTACTAATTCCTTTAATTTCTTTAATT [CACACA_negctrl_site949] | 6.82
AATTATATTCAAAATGGTACACACAATATTTAATTG [XGTACX_site5521] | 6.93
AAAAAAAAATTAGGGGTGCCATTTGCTGCTGTGCTT [GTGCAC_site9913] | 8.6
TTTTGTATTTCTCACACACACATAAGTAAACAATAA [CACACA_site5105] | 7.32
ATTAATATGAATAAAACACACATATATAACTTGTAA [CACACA_site6989] | 6.79
AATTATACTCACGTTACACACACACTATAAATATAT [CACACA_site7863] | 7.48
AAAAATTTGGCATACACACACACACGCACACGCACA [CACACA_site6422] | 8.03
CCTATAAAACCATATACACACATATAAATAAAAAAA [CACACA_site7809] | 7.14
TAAACTATATTTACATGTACATATAATATTAAATAA [XGTACX_site3528] | 7.09
TATTACATTATTCAAAAAAATTTATATGGTTATAGG [CACACA_negctrl_site1657] | 6.86
TGATAATAAGCATACACACACACACCCAAAAAAAAA [CACACA_site721] | 7.17
AACTAAATGTTATTCGCACACGGAATTTATTTAATG [CACACA_site3664] | 6.91
AAATAAAAAAAAAAAAAAAATAACTTAAATGGGATA [TGCATGCA_negctrl_site595] | 6.62
TTTTTTTTTTCTTTTTTTCTCATGAAATTCTAAATG [CACACA_negctrl_site918] | 7.05
